The target of assay [1] is POLD2 fused to the GAL4-DNA binding domain (in pGBKT7) (human) (UniProt P49005). The assay can be described thus: two-hybrid; S. cerevisiae AH109; Polη and its mutants as GAL4-activation domain fusions (pACT2), Polδ subunits as GAL4-DNA binding domain fusions (pGBKT7); growth on quadruple drop out medium (-W-L-A-H).
Assay [2] has as its target POLD2 fused to the GAL4-DNA binding domain (in pGBKT7) (human), P49005. The description is as above. The conditions noted are these: remark: other sources report otherwise.
For assay [3], the target named is POLD1 fused to the GAL4-DNA binding domain (human) (UniProt P28340). The assay is described as above.
The target of assay [4] is T1, POLD3 fused to the GAL4-DNA binding domain (human) (UniProt Q15054).
T1 sequence: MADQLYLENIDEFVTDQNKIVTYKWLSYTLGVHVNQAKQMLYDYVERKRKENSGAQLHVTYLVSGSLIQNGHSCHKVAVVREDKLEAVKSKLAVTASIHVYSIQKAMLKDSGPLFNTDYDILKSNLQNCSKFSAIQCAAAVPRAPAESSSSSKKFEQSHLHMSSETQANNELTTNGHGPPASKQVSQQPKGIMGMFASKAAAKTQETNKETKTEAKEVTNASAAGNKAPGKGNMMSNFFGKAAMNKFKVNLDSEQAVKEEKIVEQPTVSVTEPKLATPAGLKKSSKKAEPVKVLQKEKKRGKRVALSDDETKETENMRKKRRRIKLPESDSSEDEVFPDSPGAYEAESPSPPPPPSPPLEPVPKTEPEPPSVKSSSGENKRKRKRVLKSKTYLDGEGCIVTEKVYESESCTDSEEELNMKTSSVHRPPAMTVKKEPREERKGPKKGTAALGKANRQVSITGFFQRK
The assay is described as above.

Chains of the proteins cited; added tags and fusions are not shown.
UniProt P49005: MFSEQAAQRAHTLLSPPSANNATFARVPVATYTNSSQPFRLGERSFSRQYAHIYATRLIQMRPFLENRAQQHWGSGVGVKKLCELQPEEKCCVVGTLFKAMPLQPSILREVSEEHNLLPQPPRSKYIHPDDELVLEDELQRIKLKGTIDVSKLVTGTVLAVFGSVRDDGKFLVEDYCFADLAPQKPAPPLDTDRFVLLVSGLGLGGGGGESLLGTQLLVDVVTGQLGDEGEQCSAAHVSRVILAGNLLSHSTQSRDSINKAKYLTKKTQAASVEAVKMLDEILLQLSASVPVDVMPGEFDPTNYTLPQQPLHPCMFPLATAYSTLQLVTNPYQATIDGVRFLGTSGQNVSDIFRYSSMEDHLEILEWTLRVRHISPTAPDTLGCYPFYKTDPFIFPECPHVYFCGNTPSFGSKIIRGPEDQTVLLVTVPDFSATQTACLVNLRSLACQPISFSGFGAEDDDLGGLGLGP
UniProt P28340: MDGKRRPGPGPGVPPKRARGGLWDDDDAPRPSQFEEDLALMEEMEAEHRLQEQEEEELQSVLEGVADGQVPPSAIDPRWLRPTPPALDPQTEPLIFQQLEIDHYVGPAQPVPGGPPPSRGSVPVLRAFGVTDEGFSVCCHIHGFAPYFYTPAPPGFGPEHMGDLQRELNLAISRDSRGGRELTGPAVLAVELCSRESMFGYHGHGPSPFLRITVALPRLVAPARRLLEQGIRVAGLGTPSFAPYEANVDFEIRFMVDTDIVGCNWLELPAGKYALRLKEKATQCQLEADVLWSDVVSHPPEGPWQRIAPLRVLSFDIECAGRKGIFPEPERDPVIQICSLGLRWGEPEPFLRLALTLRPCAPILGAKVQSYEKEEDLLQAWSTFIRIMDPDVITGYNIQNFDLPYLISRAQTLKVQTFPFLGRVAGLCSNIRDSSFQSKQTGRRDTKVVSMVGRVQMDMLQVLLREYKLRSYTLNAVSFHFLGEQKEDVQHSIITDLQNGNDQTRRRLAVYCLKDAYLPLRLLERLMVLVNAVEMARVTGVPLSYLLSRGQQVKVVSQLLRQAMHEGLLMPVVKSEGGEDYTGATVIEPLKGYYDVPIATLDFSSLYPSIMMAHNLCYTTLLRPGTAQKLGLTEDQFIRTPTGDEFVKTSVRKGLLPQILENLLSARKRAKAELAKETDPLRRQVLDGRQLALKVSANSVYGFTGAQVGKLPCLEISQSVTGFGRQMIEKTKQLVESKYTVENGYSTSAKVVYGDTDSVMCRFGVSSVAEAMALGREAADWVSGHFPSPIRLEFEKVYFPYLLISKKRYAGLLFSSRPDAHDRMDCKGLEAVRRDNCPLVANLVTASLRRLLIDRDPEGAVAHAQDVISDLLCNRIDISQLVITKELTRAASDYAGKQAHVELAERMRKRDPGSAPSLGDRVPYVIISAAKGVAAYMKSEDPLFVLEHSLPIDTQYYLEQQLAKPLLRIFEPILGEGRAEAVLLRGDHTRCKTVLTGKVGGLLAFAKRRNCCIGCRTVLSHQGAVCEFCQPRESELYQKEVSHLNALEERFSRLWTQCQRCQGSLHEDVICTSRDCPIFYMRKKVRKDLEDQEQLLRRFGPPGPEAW

Assay [5] has as its target T2, POLD4 fused to the GAL4-DNA binding domain (human) (UniProt Q9HCU8).
T2 sequence: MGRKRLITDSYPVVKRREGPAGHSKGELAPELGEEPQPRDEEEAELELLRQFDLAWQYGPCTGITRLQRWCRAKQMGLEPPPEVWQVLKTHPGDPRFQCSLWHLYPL
Described as above.

For assay [6], the target named is POLD2 endogenous in XPV cells (human (endogenous in XP30RO)) (UniProt P49005). The assay can be described thus: proximity ligation; Polη/POLD2 PLA (rabbit anti-Polη, goat anti-POLD2) on CSK-extracted nuclei of XPV cells stably expressing Polη forms, non-irradiated.
For assay [7] the target is unchanged. The assay can be described thus: proximity ligation; Polη/POLD2 PLA (rabbit anti-Polη, goat anti-POLD2) on CSK-extracted nuclei of XPV cells stably expressing Polη forms, UV-irradiated (20 J/m^2), processed after 6 h.

No constants are given. Whether binding was seen depends on the method and setting. For some of these results: In cells and extracts the contact can be indirect. Some binding calls cover weakened binding; strength is not graded here. For some of these results: Where a sequence is shown, tags or fusion partners need not be part of it.

B1: Polι (two-hybrid fusion) (protein, UniProt Q9UNA4 1-740)
chain: MEKLGVEPEEEGGGDDDEEDAEAWAMELADVGAAASSQGVHDQVLPTPNASSRVIVHVDLDCFYAQVEMISNPELKDKPLGVQQKYLVVTCNYEARKLGVKKLMNVRDAKEKCPQLVLVNGEDLTRYREMSYKVTELLEEFSPVVERLGFDENFVDLTEMVEKRLQQLQSDELSAVTVSGHVYNNQSINLLDVLHIRLLVGSQIAAEMREAMYNQLGLTGCAGVASNKLLAKLVSGVFKPNQQTVLLPESCQHLIHSLNHIKEIPGIGYKTAKCLEALGINSVRDLQTFSPKILEKELGISVAQRIQKLSFGEDNSPVILSGPPQSFSEEDSFKKCSSEVEAKNKIEELLASLLNRVCQDGRKPHTVRLIIRRYSSEKHYGRESRQCPIPSHVIQKLGTGNYDVMTPMVDILMKLFRNMVNVKMPFHLTLLSVCFCNLKALNTAKKGLIDYYLMPSLSTTSRSGKHSFKMKDTHMEDFPKDKETNRDFLPSGRIESTRTRESPLDTTNFSKEKDINEFPLCSLPEGVDQEVFKQLPVDIQEEILSGKSREKFQGKGSVSCPLHASRGVLSFFSKKQMQDIPINPRDHLSSSKQVSSVSPCEPGTSGFNSSSSSYMSSQKDYSYYLDNRLKDERISQGPKEPQGFHFTNSNPAVSAFHSFPNLQSEQLFSRNHTTDSHKQTVATDSHEGLTENREPDSVDEKITFPSDIDPQVFYELPEAVQKELLAEWKRAGSDFHIGHK
For the molecule B1, the binding result in assay [1] is on record as “no binding”.

B2: Polη region spanning amino acids 393–511 fused to the GAL4-activation domain (in pACT2) (domain or fragment, UniProt Q9Y253 393-511)
chain: HKMSHDAFTVIKNCNTSGIQTEWSPPLTMLFLCATKFSASAPSSSTDITSFLSSDPSSLPKVPVTSSEAKTQGSGPAVTATKKATTSLESFFQKAAERQKVKEASLSSLTAPTQAPMSN
For the molecule B2, in assay [1], the binding entry was “binds”.

B3: Polκ (two-hybrid fusion), Q9UBT6 1-870 (protein)
chain: MDSTKEKCDSYKDDLLLRMGLNDNKAGMEGLDKEKINKIIMEATKGSRFYGNELKKEKQVNQRIENMMQQKAQITSQQLRKAQLQVDRFAMELEQSRNLSNTIVHIDMDAFYAAVEMRDNPELKDKPIAVGSMSMLSTSNYHARRFGVRAAMPGFIAKRLCPQLIIVPPNFDKYRAVSKEVKEILADYDPNFMAMSLDEAYLNITKHLEERQNWPEDKRRYFIKMGSSVENDNPGKEVNKLSEHERSISPLLFEESPSDVQPPGDPFQVNFEEQNNPQILQNSVVFGTSAQEVVKEIRFRIEQKTTLTASAGIAPNTMLAKVCSDKNKPNGQYQILPNRQAVMDFIKDLPIRKVSGIGKVTEKMLKALGIITCTELYQQRALLSLLFSETSWHYFLHISLGLGSTHLTRDGERKSMSVERTFSEINKAEEQYSLCQELCSELAQDLQKERLKGRTVTIKLKNVNFEVKTRASTVSSVVSTAEEIFAIAKELLKTEIDADFPHPLRLRLMGVRISSFPNEEDRKHQQRSIIGFLQAGNQALSATECTLEKTDKDKFVKPLEMSHKKSFFDKKRSERKWSHQDTFKCEAVNKQSFQTSQPFQVLKKKMNENLEISENSDDCQILTCPVCFRAQGCISLEALNKHVDECLDGPSISENFKMFSCSHVSATKVNKKENVPASSLCEKQDYEAHPKIKEISSVDCIALVDTIDNSSKAESIDALSNKHSKEECSSLPSKSFNIEHCHQNSSSTVSLENEDVGSFRQEYRQPYLCEVKTGQALVCPVCNVEQKTSDLTLFNVHVDVCLNKSFIQELRKDKFNPVNQPKESSRSTGSSSGVQKAVTRTKRPGLMTKYSTSKKIKPNNPKHTLDIFFK
For B3, in assay [2], the binding entry is on record as “no binding”.

B4: Polη full length fused to the GAL4-activation domain (in pACT2) (protein, UniProt Q9Y253 1-713)
chain: MATGQDRVVALVDMDCFFVQVEQRQNPHLRNKPCAVVQYKSWKGGGIIAVSYEARAFGVTRSMWADDAKKLCPDLLLAQVRESRGKANLTKYREASVEVMEIMSRFAVIERASIDEAYVDLTSAVQERLQKLQGQPISADLLPSTYIEGLPQGPTTAEETVQKEGMRKQGLFQWLDSLQIDNLTSPDLQLTVGAVIVEEMRAAIERETGFQCSAGISHNKVLAKLACGLNKPNRQTLVSHGSVPQLFSQMPIRKIRSLGGKLGASVIEILGIEYMGELTQFTESQLQSHFGEKNGSWLYAMCRGIEHDPVKPRQLPKTIGCSKNFPGKTALATREQVQWWLLQLAQELEERLTKDRNDNDRVATQLVVSIRVQGDKRLSSLRRCCALTRYDAHKMSHDAFTVIKNCNTSGIQTEWSPPLTMLFLCATKFSASAPSSSTDITSFLSSDPSSLPKVPVTSSEAKTQGSGPAVTATKKATTSLESFFQKAAERQKVKEASLSSLTAPTQAPMSNSPSKPSLPFQTSQSTGTEPFFKQKSLLLKQKQLNNSSVSSPQQNPWSNCKALPNSLPTEYPGCVPVCEGVSKLEESSKATPAEMDLAHNSQSMHASSASKSVLEVTQKATPNPSLLAAEDQVPCEKCGSLVPVWDMPEHMDYHFALELQKSFLQPHSSNPQVVSAVSHQGKRNPKSPLACTNKRPRPEGMQTLESFFKPLTH
Regarding B4, the binding result in assay [3] is on record as “no binding”; in assay [1], “binds”; in assay [4], “no binding”; in assay [5], “no binding”.

B5: wild type Polη stably expressed in XP30RO (XPV) cells (protein, UniProt Q9Y253 1-713)
chain: MATGQDRVVALVDMDCFFVQVEQRQNPHLRNKPCAVVQYKSWKGGGIIAVSYEARAFGVTRSMWADDAKKLCPDLLLAQVRESRGKANLTKYREASVEVMEIMSRFAVIERASIDEAYVDLTSAVQERLQKLQGQPISADLLPSTYIEGLPQGPTTAEETVQKEGMRKQGLFQWLDSLQIDNLTSPDLQLTVGAVIVEEMRAAIERETGFQCSAGISHNKVLAKLACGLNKPNRQTLVSHGSVPQLFSQMPIRKIRSLGGKLGASVIEILGIEYMGELTQFTESQLQSHFGEKNGSWLYAMCRGIEHDPVKPRQLPKTIGCSKNFPGKTALATREQVQWWLLQLAQELEERLTKDRNDNDRVATQLVVSIRVQGDKRLSSLRRCCALTRYDAHKMSHDAFTVIKNCNTSGIQTEWSPPLTMLFLCATKFSASAPSSSTDITSFLSSDPSSLPKVPVTSSEAKTQGSGPAVTATKKATTSLESFFQKAAERQKVKEASLSSLTAPTQAPMSNSPSKPSLPFQTSQSTGTEPFFKQKSLLLKQKQLNNSSVSSPQQNPWSNCKALPNSLPTEYPGCVPVCEGVSKLEESSKATPAEMDLAHNSQSMHASSASKSVLEVTQKATPNPSLLAAEDQVPCEKCGSLVPVWDMPEHMDYHFALELQKSFLQPHSSNPQVVSAVSHQGKRNPKSPLACTNKRPRPEGMQTLESFFKPLTH
Take B5: the binding entry is listed as “binds weakly” in assay [6] and “binds” in assay [7].

B6: Polη F1* stably expressed in XP30RO (XPV) cells (protein, UniProt Q9Y253 1-713)
chain: MATGQDRVVALVDMDCFFVQVEQRQNPHLRNKPCAVVQYKSWKGGGIIAVSYEARAFGVTRSMWADDAKKLCPDLLLAQVRESRGKANLTKYREASVEVMEIMSRFAVIERASIDEAYVDLTSAVQERLQKLQGQPISADLLPSTYIEGLPQGPTTAEETVQKEGMRKQGLFQWLDSLQIDNLTSPDLQLTVGAVIVEEMRAAIERETGFQCSAGISHNKVLAKLACGLNKPNRQTLVSHGSVPQLFSQMPIRKIRSLGGKLGASVIEILGIEYMGELTQFTESQLQSHFGEKNGSWLYAMCRGIEHDPVKPRQLPKTIGCSKNFPGKTALATREQVQWWLLQLAQELEERLTKDRNDNDRVATQLVVSIRVQGDKRLSSLRRCCALTRYDAHKMSHDAFTVIKNCNTSGIQTEWSPPLTMLFLCATKFSASAPSSSTDITSFLSSDPSSLPKVPVTSSEAKTQGSGPAVTATKKATTSLESAAQKAAERQKVKEASLSSLTAPTQAPMSNSPSKPSLPFQTSQSTGTEPFFKQKSLLLKQKQLNNSSVSSPQQNPWSNCKALPNSLPTEYPGCVPVCEGVSKLEESSKATPAEMDLAHNSQSMHASSASKSVLEVTQKATPNPSLLAAEDQVPCEKCGSLVPVWDMPEHMDYHFALELQKSFLQPHSSNPQVVSAVSHQGKRNPKSPLACTNKRPRPEGMQTLESFFKPLTH
Regarding B6, the binding entry in assay [7] was “no binding”.

Values taken from paper PMC4344513.
